Test results: a collection of fitness landscapes (doi:10.1016/j.celrep.2020.107928)
In all, about 81,000 sequences were measured (“one-hybrid fitness for binding parS DNA”: median about -0.17, highest 2% from about 0.51 on). Some of the results follow.

B1: Caulobacter ParB omega fusion; a variant is named by its letters at X, in order, B8GW30 (parent)
chain: MESVVVGEPGMSEGRRGLGRGLSALLGEVDAAPAQAPGEQLGGSREAPIEILQRNPDQPRRTFREEDLEDLSNSIREKGVLQPILVRPSPDTAGEYQIVAGERAWRAAQRAGLKTVPIMVRELDDLAVLEIGIIENVQRADLNVLEEALSYKVLMEKFERTQENIAQTIGKSXSHVANXMRLLXLPDEVQSYLVSGELTAXHARAIAAAADPVALAKQIIEGGLSVRETEALARKAPNLSAGKSKGGRPPRVKDTDTQALESDLSSVLGLDVSIDHRGSTGTLTITYATLEQLDDLCNRLTRGI

Variants of: B1
Experiment: one-hybrid fitness for binding parS DNA (scaled: cognate 1, non-cognate 0); higher = stronger binding
Settings: with parS DNA site
Procedure, shortened: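 Values were rescaled so that cognate is 1 and non-cognate is 0. Each is a fitness, the log change in a variant's read ratio to wild type from Illumina reads of plasmids before and after selection, with three replicate libraries pooled and variants under 10 reads dropped. Selection of the Caulobacter ParB libraries, four specificity codons randomised, used E. coli USO with a HIS3 reporter, site 19 bp from the promoter, on M9-minus-histidine with 0.1 mM IPTG and 5 mM 3-AT for 48 hours at 37°C.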

Variant | one-hybrid fitness for binding parS DNA
RLEV | ≤ 0.2
SAQQ | ≤ 0.2
HIMM | ≤ 0.2
WGMS | ≤ 0.2
LCVC | ≤ 0.2
MARN | ≤ 0.2
YLQM | ≤ 0.2
NLRM | ≤ 0.2
QAMQ | ≤ 0.2
ELMW | ≤ 0.2
QSSC | ≤ 0.2
RCFT | 0.955
QALG | ≤ 0.2
ISKT | ≤ 0.2
MHYP | ≤ 0.2
QTNN | ≤ 0.2
SFNV | ≤ 0.2
THPR | ≤ 0.2
CNAD | ≤ 0.2
PRWS | ≤ 0.2
HTHL | ≤ 0.2
RFIY | ≤ 0.2
QYRV | ≤ 0.2
KRST | ≤ 0.2
QFGV | ≤ 0.2

Variant | one-hybrid fitness for binding parS DNA
NPVT | ≤ 0.2
HRRI | ≤ 0.2
WHWG | ≤ 0.2
NNCS | ≤ 0.2
VTCV | ≤ 0.2
VQQE | ≤ 0.2
EWQN | ≤ 0.2
TRHP | ≤ 0.2
SDHS | ≤ 0.2
IRPE | ≤ 0.2
QGNG | ≤ 0.2
NKSF | ≤ 0.2
GKCS | ≤ 0.2
GDEP | ≤ 0.2
YCAC | ≤ 0.2
DSST | ≤ 0.2
PNAM | ≤ 0.2
NKAS | ≤ 0.2
KAPY | ≤ 0.2
FHIR | ≤ 0.2
FDQL | ≤ 0.2
SIMV | ≤ 0.2
MRLQ | ≤ 0.2
RYIN | 0.269
MMQL | ≤ 0.2

Variant | one-hybrid fitness for binding parS DNA
KTNR | ≤ 0.2
QLTD | ≤ 0.2
SSIQ | ≤ 0.2
KQQW | ≤ 0.2
KYQC | ≤ 0.2
RQPC | 0.426
RTGA | 0.679
RKEK | ≤ 0.2
GKEY | ≤ 0.2
LYRL | ≤ 0.2
FWAY | ≤ 0.2
WSAR | ≤ 0.2
LSKR | ≤ 0.2
GRTG | ≤ 0.2
PMYT | ≤ 0.2
RDVS | ≤ 0.2
QMMG | ≤ 0.2
WKVG | ≤ 0.2
PYLV | ≤ 0.2
QNNK | ≤ 0.2
KAVF | ≤ 0.2
RNFM | ≤ 0.2
NTAK | ≤ 0.2
HRWA | ≤ 0.2
PANE | ≤ 0.2

Variant | one-hybrid fitness for binding parS DNA
AWLI | ≤ 0.2
NAKT | ≤ 0.2
GRLA | ≤ 0.2
THLL | ≤ 0.2
HDQW | ≤ 0.2
PKTR | ≤ 0.2
TVNH | ≤ 0.2
RMWA | 0.634
WSRS | ≤ 0.2
NMHK | ≤ 0.2
SLHR | ≤ 0.2
AQFF | ≤ 0.2
SAIL | ≤ 0.2
MCRW | ≤ 0.2
FFSL | ≤ 0.2
GAHR | ≤ 0.2
NGDS | ≤ 0.2
YRFG | ≤ 0.2
NSDC | ≤ 0.2
PLGC | ≤ 0.2
RPVE | ≤ 0.2
KPAA | ≤ 0.2
WTRG | ≤ 0.2
IKAR | ≤ 0.2
VKYL | ≤ 0.2

Variant | one-hybrid fitness for binding parS DNA
YLGC | ≤ 0.2
EQSL | ≤ 0.2
DRWI | ≤ 0.2
MKHS | ≤ 0.2
SCQP | ≤ 0.2
YSVK | ≤ 0.2
DHSD | ≤ 0.2
LMKN | ≤ 0.2
KFGE | ≤ 0.2
VDIS | ≤ 0.2
YYQC | ≤ 0.2
PPHP | ≤ 0.2
FPPI | ≤ 0.2
GDPR | ≤ 0.2
SIRG | ≤ 0.2
AKGR | ≤ 0.2
QLEK | ≤ 0.2
TIYT | ≤ 0.2
PVCT | ≤ 0.2
RFYE | ≤ 0.2
VQFV | ≤ 0.2
HSKY | ≤ 0.2
FQHG | ≤ 0.2
NARD | ≤ 0.2
NQKY | ≤ 0.2

Variant | one-hybrid fitness for binding parS DNA
QIKY | ≤ 0.2
RRPR | ≤ 0.2
DKMR | ≤ 0.2
LGQE | ≤ 0.2
TKHC | ≤ 0.2
TCAP | ≤ 0.2
YIPG | ≤ 0.2
FGGT | ≤ 0.2
RSMM | 0.308
PPMM | ≤ 0.2
GEIF | ≤ 0.2
YLSL | ≤ 0.2
RKSV | ≤ 0.2
LFLS | ≤ 0.2
YPCC | ≤ 0.2
KTND | ≤ 0.2
NQTI | ≤ 0.2
TPPM | ≤ 0.2
PKAP | ≤ 0.2
DQAD | ≤ 0.2
PLNT | ≤ 0.2
HWIG | ≤ 0.2
AYIN | ≤ 0.2
GIWS | ≤ 0.2
LPVD | ≤ 0.2

Variant | one-hybrid fitness for binding parS DNA
RLEH | 0.228
QMMD | ≤ 0.2
MSLW | ≤ 0.2
SCRN | ≤ 0.2
DSMD | ≤ 0.2
TNDR | ≤ 0.2
ASPI | ≤ 0.2
RLSN | 0.455
HHST | ≤ 0.2
DING | ≤ 0.2
HITR | ≤ 0.2
RIRC | 0.847
TTVR | ≤ 0.2
PQGT | ≤ 0.2
CNIR | ≤ 0.2
PQIY | ≤ 0.2
AYMC | ≤ 0.2
LDSM | ≤ 0.2
MMSM | ≤ 0.2
CKEG | ≤ 0.2
RDLY | ≤ 0.2
TQMA | ≤ 0.2
MDRS | ≤ 0.2
GVRK | ≤ 0.2
HRAC | 0.25

Variant | one-hybrid fitness for binding parS DNA
LVPC | ≤ 0.2
PSRA | ≤ 0.2
RPMA | ≤ 0.2
SHHC | ≤ 0.2
YVDS | ≤ 0.2
QNQV | ≤ 0.2
EKHG | ≤ 0.2
KLCG | ≤ 0.2
QCEA | ≤ 0.2
KPLK | ≤ 0.2
VLPG | ≤ 0.2
TRNG | ≤ 0.2
TLII | ≤ 0.2
KNNH | ≤ 0.2
HTVS | ≤ 0.2
GARQ | ≤ 0.2
YYMV | ≤ 0.2
VPLA | ≤ 0.2
EFSD | ≤ 0.2
RHRC | 0.879
